From CN116897165A (dated 2023)

Columns and labels:
重组人IL-6R = molecular target: T1, 重组人IL-6R (human, UniProt P08887 20-365, limits assumed); assay: ELISA, plate coated with recombinant human IL-6R, anti-human IgG1-Fc-HRP, OD450
T1 construct: Coated on ELISA plates; also called recombinant human IL-6R; hIL-6R
T1 sequence (looked up): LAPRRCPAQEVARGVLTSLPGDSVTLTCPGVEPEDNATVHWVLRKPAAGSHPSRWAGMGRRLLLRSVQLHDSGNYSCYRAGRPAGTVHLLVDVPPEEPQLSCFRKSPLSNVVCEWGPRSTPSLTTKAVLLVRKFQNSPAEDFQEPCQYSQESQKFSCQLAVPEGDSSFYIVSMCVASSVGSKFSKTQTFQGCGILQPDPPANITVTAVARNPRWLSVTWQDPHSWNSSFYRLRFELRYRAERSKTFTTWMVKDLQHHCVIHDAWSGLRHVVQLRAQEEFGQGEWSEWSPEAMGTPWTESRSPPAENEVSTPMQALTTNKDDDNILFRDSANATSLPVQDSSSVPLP

重组人VEGF-B 167 = molecular target: T2, 重组人VEGF-B 167 (human, UniProt P49765-2 22-188); assay: ELISA, plate coated with recombinant human VEGF-B167, anti-human IgG1-Fc-HRP, OD450
T2 construct: Coated on ELISA plates; also called recombinant human VEGF-B167
T2 sequence (looked up): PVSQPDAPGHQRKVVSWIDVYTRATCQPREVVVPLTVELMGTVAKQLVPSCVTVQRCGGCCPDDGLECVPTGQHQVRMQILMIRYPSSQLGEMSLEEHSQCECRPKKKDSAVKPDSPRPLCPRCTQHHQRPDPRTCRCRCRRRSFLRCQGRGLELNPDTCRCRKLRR

重组人VEGF-A 165 = molecular target: T3, 重组人VEGF-A 165 (human, UniProt P15692-4 27-191); assay: ELISA, plate coated with recombinant human VEGF-A165, anti-human IgG1-Fc-HRP, OD450
T3 construct: Coated on ELISA plates; also used in solution in the VEGFR2 reporter assay; also called recombinant human VEGF-A165
T3 sequence (looked up): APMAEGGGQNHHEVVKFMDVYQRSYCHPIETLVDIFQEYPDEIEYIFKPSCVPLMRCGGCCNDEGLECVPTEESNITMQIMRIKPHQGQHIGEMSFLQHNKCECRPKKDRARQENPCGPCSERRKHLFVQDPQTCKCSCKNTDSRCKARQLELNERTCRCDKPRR

Measured: binding result

B1: EB-vvC (Fc fusion)
chain: SDTGRPFVEMYSEIPEIIHMTEGRELVIPCRVTSPNITVTLKKFPLDTLIPDGKRIIWDSRKGFIISNATYKEIGLLTCEATVNGHLYKTNYLTHRQTNTIIDVVLSPSHGIELSVGEKLVLNCTARTELNVGIDFNWEYPSSKHQHKKLVNRDLKTQSGSEMKKFLSTLTIDGVTRSDQGLYTCAASSGLMTKKNSTFVRVHEK[letters of human IgG1 Fc not shown]GSGGGSGGGGSGGGGGSGGGGDIQMTQSPSSLSASVGDRVTITCRASQDISSYLNWYQQKPGKAPKLLIYYTSRLHSGVPSRFSGSGSGTDFTFTISSLQPEDIATYYCQQGNTLPYTFGQGTKVEIKRGGGGSGGGGSGGGGSQVQLQESGPGLVRPSQTLSLTCTVSGYSITSDHAWSWVRQPPGRGLEWIGYISYSGITTYNPSLKSRVTMLRDTSKNQFSLRLSSVTAADTAVYYCARSLARTTAMDYWGQGSLVTVSS
notes: Dimer of VEGFR-1-D2-VEGFR-2-D3 - IgG1 Fc - flexible linker - IL-6R scFv
binds: all assays above

B2: EB-vvA (Fc fusion)
chain: DIQMTQSPSSLSASVGDRVTITCRASQDISSYLNWYQQKPGKAPKLLIYYTSRLHSGVPSRFSGSGSGTDFTFTISSLQPEDIATYYCQQGNTLPYTFGQGTKVEIKRGGGGSGGGGSGGGGSQVQLQESGPGLVRPSQTLSLTCTVSGYSITSDHAWSWVRQPPGRGLEWIGYISYSGITTYNPSLKSRVTMLRDTSKNQFSLRLSSVTAADTAVYYCARSLARTTAMDYWGQGSLVTVSS[letters of human IgG1 Fc not shown]GSGGGSGGGGSGGGGGSGGGGSDTGRPFVEMYSEIPEIIHMTEGRELVIPCRVTSPNITVTLKKFPLDTLIPDGKRIIWDSRKGFIISNATYKEIGLLTCEATVNGHLYKTNYLTHRQTNTIIDVVLSPSHGIELSVGEKLVLNCTARTELNVGIDFNWEYPSSKHQHKKLVNRDLKTQSGSEMKKFLSTLTIDGVTRSDQGLYTCAASSGLMTKKNSTFVRVHEK
notes: Dimer of IL-6R scFv - IgG1 Fc - flexible linker (other length than in EB-DJ1) - VEGFR-1-D2-VEGFR-2-D3
binds: all assays above

B3: EB-DJ1 (Fc fusion)
chain: DIQMTQSPSSLSASVGDRVTITCRASQDISSYLNWYQQKPGKAPKLLIYYTSRLHSGVPSRFSGSGSGTDFTFTISSLQPEDIATYYCQQGNTLPYTFGQGTKVEIKRGGGGSGGGGSGGGGSQVQLQESGPGLVRPSQTLSLTCTVSGYSITSDHAWSWVRQPPGRGLEWIGYISYSGITTYNPSLKSRVTMLRDTSKNQFSLRLSSVTAADTAVYYCARSLARTTAMDYWGQGSLVTVSS[letters of human IgG1 Fc not shown]GSGGGGSGGGSDTGRPFVEMYSEIPEIIHMTEGRELVIPCRVTSPNITVTLKKFPLDTLIPDGKRIIWDSRKGFIISNATYKEIGLLTCEATVNGHLYKTNYLTHRQTNTIIDVVLSPSHGIELSVGEKLVLNCTARTELNVGIDFNWEYPSSKHQHKKLVNRDLKTQSGSEMKKFLSTLTIDGVTRSDQGLYTCAASSGLMTKKNSTFVRVHEK
notes: Dimer of IL-6R scFv - IgG1 Fc - flexible linker - VEGFR-1-D2-VEGFR-2-D3
binds: all assays above
